Source: the supplement of paper PMC8728848
This is one part of the list.

Tests used:
Assay in all cases: glycan array binding signal (z-score within array); higher = stronger binding
Conditions in all cases: glycan notation: IUPAC condensed, linker removed
[1] = target: Kdn(a2-3)Gal(b1-3)GlcNAc
How it was run: (§1)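 Glycan array data were curated from 3228 arrays in the Consortium for Functional Glycomics database and kept only where the protein sequence was available. Glycan names were converted to IUPAC-condensed notation, and columns mapping to the same glycan were averaged. The binding signal is a within-array Z-score, averaged across arrays of the same protein sequence at different concentrations or buffers and across linkers. Negative Z-scores can be read as non-binding.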

[2] = target: Kdn(a2-3)Gal(b1-4)Glc
How it was run: as §1

[3] = target: Kdn(a2-3)Gal(b1-4)GlcNAc
How it was run: as §1

[4] = target: Kdn(a2-3)Gal(b1-4)[Fuc(a1-3)]GlcNAc
How it was run: as §1

[5] = target: Kdn(a2-6)Gal(b1-4)GlcNAc
How it was run: as §1

[6] = target: Man(a1-2)Man(a1-2)Man(a1-3)Man
How it was run: as §1

[7] = target: Man(a1-2)Man(a1-2)Man(a1-6)[Man(a1-3)]Man
How it was run: as §1

[8] = target: Man(a1-2)Man(a1-3)Man
How it was run: as §1

[9] = target: Man(a1-2)Man(a1-3)[Man(a1-2)Man(a1-6)]Man
How it was run: as §1

[10] = target: Man(a1-2)Man(a1-3)[Man(a1-2)Man(a1-6)]Man(a1-6)[Man(a1-2)Man(a1-2)Man(a1-3)]Man
How it was run: as §1

[11] = target: Man(a1-2)Man(a1-3)[Man(a1-2)Man(a1-6)]Man(a1-6)[Man(a1-2)Man(a1-2)Man(a1-3)]Man(b1-4)GlcNAc(b1-4)GlcNAc
How it was run: as §1

[12] = target: Man(a1-2)Man(a1-3)[Man(a1-6)]Man(a1-6)[Man(a1-2)Man(a1-3)]Man(b1-4)GlcNAc(b1-4)GlcNAc
How it was run: as §1

[13] = target: Man(a1-2)Man(a1-6)[Man(a1-3)]Man(a1-6)[Man(a1-2)Man(a1-2)Man(a1-3)]Man
How it was run: as §1

[14] = target: Man(a1-2)Man(a1-6)[Man(a1-3)]Man(a1-6)[Man(a1-2)Man(a1-2)Man(a1-3)]Man(b1-4)GlcNAc(b1-4)GlcNAc
How it was run: as §1

[15] = target: Man(a1-3)[Man(a1-6)]Man
How it was run: as §1

[16] = target: Man(a1-3)[Man(a1-6)]Man(a1-6)[Man(a1-2)Man(a1-3)]Man(b1-4)GlcNAc(b1-4)GlcNAc
How it was run: as §1

[17] = target: Man(a1-3)[Man(a1-6)]Man(a1-6)[Man(a1-3)]Man
How it was run: as §1

[18] = target: Man(a1-3)[Man(a1-6)]Man(a1-6)[Man(a1-3)]Man(b1-4)GlcNAc(b1-4)GlcNAc
How it was run: as §1

[19] = target: Man(a1-3)[Man(a1-6)]Man(b1-4)GlcNAc(b1-4)GlcNAc
How it was run: as §1

[20] = target: Man(a1-3)[Man(a1-6)]Man(b1-4)GlcNAc(b1-4)[Fuc(a1-6)]GlcNAc
How it was run: as §1

[21] = target: Man(a1-6)Man
How it was run: as §1

[22] = target: Man(b1-4)GlcNAc
How it was run: as §1

[23] = target: MurNAc(b1-4)GlcNAc
How it was run: as §1

[24] = target: Neu5Ac(a2-3)Gal
How it was run: as §1

[25] = target: Neu5Ac(a2-3)Gal(b1-3)GalNAc
How it was run: as §1

[26] = target: Neu5Ac(a2-3)Gal(b1-3)GalNAc(b1-3)Gal(a1-4)Gal(b1-4)Glc
How it was run: as §1

[27] = target: Neu5Ac(a2-3)Gal(b1-3)GalNAc(b1-4)[Neu5Ac(a2-3)]Gal(b1-4)Glc
How it was run: as §1

[28] = target: Neu5Ac(a2-3)Gal(b1-3)GalNAc(b1-4)[Neu5Ac(a2-8)Neu5Ac(a2-3)]Gal(b1-4)Glc
How it was run: as §1

[29] = target: Neu5Ac(a2-3)Gal(b1-3)GalNAc6S
How it was run: as §1

[30] = target: Neu5Ac(a2-3)Gal(b1-3)GlcNAc
How it was run: as §1

[31] = target: Neu5Ac(a2-3)Gal(b1-3)GlcNAc(b1-2)Man
How it was run: as §1

[32] = target: Neu5Ac(a2-3)Gal(b1-3)GlcNAc(b1-2)Man(a1-3)[GlcNAc(b1-4)][Neu5Ac(a2-3)Gal(b1-3)GlcNAc(b1-2)Man(a1-6)]Man(b1-4)GlcNAc(b1-4)GlcNAc
How it was run: as §1

[33] = target: Neu5Ac(a2-3)Gal(b1-3)GlcNAc(b1-2)Man(a1-3)[Neu5Ac(a2-3)Gal(b1-3)GlcNAc(b1-2)Man(a1-6)]Man(b1-4)GlcNAc(b1-4)GlcNAc
How it was run: as §1

[34] = target: Neu5Ac(a2-3)Gal(b1-3)GlcNAc(b1-3)Gal(b1-3)GlcNAc
How it was run: as §1

[35] = target: Neu5Ac(a2-3)Gal(b1-3)GlcNAc(b1-3)Gal(b1-4)GlcNAc
How it was run: as §1

[36] = target: Neu5Ac(a2-3)Gal(b1-3)GlcNAc(b1-3)GalNAc
How it was run: as §1

[37] = target: Neu5Ac(a2-3)Gal(b1-3)GlcNAc(b1-4)Gal(b1-4)Glc
How it was run: as §1

[38] = target: Neu5Ac(a2-3)Gal(b1-3)GlcNAc(b1-6)GalNAc
How it was run: as §1

B1: Als3-N (Candida albicans) (protein)
chain: KTITGVFNSFNSLTWSNAATYNYKGPGTPTWNAVLGWSLDGTSASPGDTFTLNMPCVFKFTTSQTSVDLTAHGVKYATCQFQAGEEFMTFSTLTCTVSNTLTPSIKALGTVTLPLAFNVGGTGSSVDLEDSKCFTAGTNTVTFNDGGKKISINVDFERSNVDPKGYLTDSRVIPSLNKVSTLFVAPQCANGYTSGTMGFANTYGDVQIDCSNIHVGITKGLNDWNYPVSSESFSYTKTCSSNGIFITYKNVPAGYRPFVDAYISATDVNSYTLSYANEYTCAGGYWQRAPFTLRWTGYRNSDAGSNGIVIVATTRTVTDSTTAVTTLPFDPNRDKTKTIEILKPIPTTTITTSYVGVTTSYLTKTAPIGETATVIVDIPYHTTTTVTSKWTGTITSTTTHTNPTDSIDTVIVQVP
**Q.** B1 was tested. Which “glycan array binding signal (z-score)” value [1] did it give?
**A.** -0.154

**Q.** And the “glycan array binding signal (z-score)” value [2]?
**A.** -0.274

**Q.** What about the “glycan array binding signal (z-score)” value [3] of the same binder?
**A.** -0.156

**Q.** And the “glycan array binding signal (z-score)” value [4]?
**A.** -0.144

**Q.** What about the “glycan array binding signal (z-score)” value [5] of the same binder?
**A.** -0.192

**Q.** What about the “glycan array binding signal (z-score)” value [6] of the same binder?
**A.** -0.063

**Q.** And the “glycan array binding signal (z-score)” value [7]?
**A.** -0.257

**Q.** What about the “glycan array binding signal (z-score)” value [8] of the same binder?
**A.** -0.226

**Q.** And the “glycan array binding signal (z-score)” value [9]?
**A.** -0.321

**Q.** What about the “glycan array binding signal (z-score)” value [10] of the same binder?
**A.** -0.326

**Q.** What about the “glycan array binding signal (z-score)” value [11] of the same binder?
**A.** -0.17

**Q.** What about the “glycan array binding signal (z-score)” value [12] of the same binder?
**A.** -0.192

**Q.** And the “glycan array binding signal (z-score)” value [13]?
**A.** -0.361

**Q.** What about the “glycan array binding signal (z-score)” value [14] of the same binder?
**A.** -0.368

**Q.** What about the “glycan array binding signal (z-score)” value [15] of the same binder?
**A.** -0.317

**Q.** And the “glycan array binding signal (z-score)” value [16]?
**A.** -0.233

**Q.** And the “glycan array binding signal (z-score)” value [17]?
**A.** -0.316

**Q.** What about the “glycan array binding signal (z-score)” value [18] of the same binder?
**A.** -0.2

**Q.** What about the “glycan array binding signal (z-score)” value [19] of the same binder?
**A.** -0.176

**Q.** What about the “glycan array binding signal (z-score)” value [20] of the same binder?
**A.** -0.019

**Q.** And the “glycan array binding signal (z-score)” value [21]?
**A.** -0.169

**Q.** What about the “glycan array binding signal (z-score)” value [22] of the same binder?
**A.** -0.264

**Q.** And the “glycan array binding signal (z-score)” value [23]?
**A.** 0.037

**Q.** What about the “glycan array binding signal (z-score)” value [24] of the same binder?
**A.** -0.247

**Q.** What about the “glycan array binding signal (z-score)” value [25] of the same binder?
**A.** -0.06

**Q.** What about the “glycan array binding signal (z-score)” value [26] of the same binder?
**A.** -0.162

**Q.** And the “glycan array binding signal (z-score)” value [27]?
**A.** -0.293

**Q.** And the “glycan array binding signal (z-score)” value [28]?
**A.** -0.235

**Q.** What about the “glycan array binding signal (z-score)” value [29] of the same binder?
**A.** -0.243

**Q.** What about the “glycan array binding signal (z-score)” value [30] of the same binder?
**A.** -0.252

**Q.** And the “glycan array binding signal (z-score)” value [31]?
**A.** -0.29

**Q.** What about the “glycan array binding signal (z-score)” value [32] of the same binder?
**A.** -0.11

**Q.** And the “glycan array binding signal (z-score)” value [33]?
**A.** -0.215

**Q.** What about the “glycan array binding signal (z-score)” value [34] of the same binder?
**A.** -0.275

**Q.** What about the “glycan array binding signal (z-score)” value [35] of the same binder?
**A.** -0.127

**Q.** And the “glycan array binding signal (z-score)” value [36]?
**A.** -0.285

**Q.** And the “glycan array binding signal (z-score)” value [37]?
**A.** -0.308

**Q.** What about the “glycan array binding signal (z-score)” value [38] of the same binder?
**A.** 0.161
